# Test results as given in PubChem BioAssay AID540317 (National Center for Advancing Translational Sciences (NCATS), 2011).
# The campaign covered roughly 390,000 compounds. About 2,200 (0.56%) were called active. This list was built around the results that the source calls inconclusive (neither active nor inactive); the mix of calls is not that of the screen. The call rests on the fitted dose curve; in most records, active means well fitted inhibition curve with a large enough effect; inconclusive means small, poorly fitted or top-dose-only effect; inactive means no such curve, though single readings can be large or run the other way. Where the call is inconclusive, the potency comes from a doubtful curve fit.
# Biological target: Chromobox protein homolog 1 (Homo sapiens) (UniProt P83916)
# Sequence of UniProt P83916 (P83916 whole entry, looked up): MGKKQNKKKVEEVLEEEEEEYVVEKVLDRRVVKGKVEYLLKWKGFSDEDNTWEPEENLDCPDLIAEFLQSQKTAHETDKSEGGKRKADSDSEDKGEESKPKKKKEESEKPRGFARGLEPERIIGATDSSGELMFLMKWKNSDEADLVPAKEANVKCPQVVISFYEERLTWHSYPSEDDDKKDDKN
# Assay: HTS for Inhibitors of HP1-beta Chromodomain Interactions with Methylated Histone Tails; further: nearly all actives have a fitted effect of over 70% in size
# Conditions: AlphaScreen HP1-beta / biotin-H3K9me3 peptide binding; series mostly up to 114 µM; activity change, negative = inhibition: at the top concentration
# Summary of the method: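 HP1-beta protein (50 nM final) preincubated 30 min at room temperature with biotinylated H3(1-18)K9me3 peptide (50 nM) in PBS pH 7.4, 0.01% Tween-20, then compound added for 30 min. AlphaScreen streptavidin donor/nickel chelate acceptor beads (10 ug/mL final), 30 min dark, luminescence read.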
# Potency means the concentration at half of the fitted maximal effect; tags describe the fitted curve by direction and shape.
SMILES,"activity change, negative = inhibition",Potency
O=C(COc1cc(Cl)c(Cl)cc1Cl)N1CCN(c2ccccn2)CC1,inactive: 33.8%,–
Cc1cc(C(=O)COC(=O)c2cc(Cl)c(O)c(Cl)c2)c(C)n1C,–,"inconclusive: 44.7 µM [inhibitor, partial curve]"
CC(=O)Nc1ccc(NC(=O)C(C)OC(=O)CNC(=O)c2sc3ccccc3c2Cl)cc1 (stereo not drawn),–,"inconclusive: 39.8 µM [inhibitor, single point]"
COc1cc(OC)c(OC)cc1CN1CCN(c2ccc(F)cc2)CC1,–,"inconclusive: 56.2 µM [inhibitor, partial curve, poor fit]"
Fc1ccc(OCCOCCN2CCCC2)cc1,–,"inconclusive: 79.4 µM [inhibitor, single point]"
COc1cc(C(c2sc3nc(C)nn3c2O)N2CCC3(CC2)OCCO3)cc(OC)c1OC (stereo not drawn),–,"inconclusive: 7.08 µM [inhibitor, single point]"
COc1ccc(N2CCN(C(=O)C(C)n3c(=O)cc(C(F)(F)F)c4c(C)nn(C)c43)CC2)cc1 (stereo not drawn),–,"inconclusive: 70.8 µM [inhibitor, partial curve]"
O=C(Cc1ccc(-n2cccc2)cc1)N1CCN(c2ccccc2F)CC1,–,"inconclusive: 56.2 µM [inhibitor, single point]"
Cc1ccc(C)c(N=Cc2ccc(-c3ccc([N+](=O)[O-])cc3)o2)c1,–,"inconclusive: 20 µM [inhibitor, full curve]"
COc1cccc2sc(NN)nc12,–,"inconclusive: 70.8 µM [inhibitor, single point]"
COC(=O)c1ccccc1NC(=O)COC(=O)c1ccccc1N=Nc1ccc(N(C)C)cc1,–,"inconclusive: 8.91 µM [inhibitor, full curve, poor fit]"
Cc1cc(N)n(-c2ccc(C)c(C)c2)n1,inactive: 17.9%,–
O=C(N/N=C/c1ccc(-c2ccc(Cl)c(C(=O)O)c2)o1)c1cc2c(ccc3ccccc32)o1,–,"inconclusive: 39.8 µM [inhibitor, full curve]"
N#Cc1nc(-c2ccc(OCc3ccccc3)cc2)oc1N1CCOCC1,–,"inconclusive: 14.1 µM [inhibitor, full curve]"
CC1(C)Oc2ccc(C(=O)Nc3ccccc3F)cc2N(CC(=O)N2CCOCC2)C1=O,–,"inconclusive: 89.1 µM [inhibitor, partial curve, poor fit]"
O=C(/C=C/c1ccco1)N1CCN(S(=O)(=O)c2cccs2)CC1,–,"inconclusive: 50.1 µM [inhibitor, partial curve, poor fit]"
CCOC(=O)C1=C(C)N(c2ccccc2)C(=O)/C1=C\c1ccc(O)c(OC)c1,–,"inconclusive: 10 µM [inhibitor, full curve]"
O=[N+]([O-])/C(N=Nc1ccccc1)=N\Nc1ccccc1,–,"inconclusive: 89.1 µM [inhibitor, single point]"
Cc1cccc(C(=O)NC(=S)Nc2ccc(S(=O)(=O)N3CCN(C)CC3)cc2)c1,–,"inconclusive: 35.5 µM [inhibitor, partial curve]"
CCCCCN(C(=O)CCC(=O)OCc1ccccc1C(F)(F)F)c1c(N)n(CCCC)c(=O)[nH]c1=O,inactive: 17.5% [at 57 µM],–
C/C(=N/Nc1ccc(C(=O)c2c(C)cc3ccccn23)cc1[N+](=O)[O-])c1ccc(O)cc1,–,"inconclusive: 3.55 µM [inhibitor, full curve, poor fit]"
Cc1ccc(-c2nnc(Nc3ccc(O)cc3)c3ccccc23)cc1S(=O)(=O)N1CCCCC1,inactive: -6.51%,–
COC(=O)C1=C[C@@H](C(=O)OC)C2C3=C(C(=O)[C@]2(CC(C)C)NC(=O)c2ccccc2)[C@H](C)n2c(=O)n(C)c(=O)n2[C@@H]3C1 (stereo partly drawn),inactive: 15.6%,–

SMILES,"activity change, negative = inhibition",Potency
CCCCn1c(N2CCC(Cc3ccccc3)CC2)nc2c1c(=O)[nH]c(=O)n2C,–,"inconclusive: 70.8 µM [inhibitor, single point]"
CC(C)c1cc(-c2nc(-c3ccc(Br)cc3)no2)n[nH]1,inactive: 42.7%,–
CC(C)N1CCc2c(sc(NC(=O)c3cc4cc([N+](=O)[O-])ccc4s3)c2C(N)=O)C1,–,"inconclusive: 50.1 µM [inhibitor, partial curve, poor fit]"
CC(/C=N/NC(=O)CSc1nnc(SCc2ccccc2)s1)=C\c1ccco1,–,"inconclusive: 28.2 µM [inhibitor, partial curve]"
CC1(C)CC(=O)C2=C(C1)OC(N)=C(C#N)C2c1ccc[nH]1 (stereo not drawn),–,"inconclusive: 79.4 µM [inhibitor, single point]"
Cc1ccc(C(=O)NC(=S)Nc2cccc(NC(=O)c3ccccc3Cl)c2)cc1[N+](=O)[O-],–,"inconclusive: 8.91 µM [inhibitor, full curve, poor fit]"
Nc1cc2c(cc1C(=O)c1cccc(Br)c1)OCCO2,–,"inconclusive: 44.7 µM [inhibitor, partial curve]"
CN1CCN(C(=O)NC2CCCCC2)CC1,–,"inconclusive: 28.2 µM [inhibitor, partial curve]"
CSCCC(NC(=O)c1cccc(C)c1)C(=O)OCC(=O)Nc1c(C)nn(-c2ccccc2)c1C (stereo not drawn),inactive: 0.62%,–
CC1=C(CC(=O)c2ccccc2)C(=O)c2ccccc2C1=O,–,"inconclusive: 44.7 µM [inhibitor, single point]"
Cc1ccc(C(C)C)c(OCC(=O)N/N=C/c2cccn2C)c1,–,"inconclusive: 39.8 µM [inhibitor, partial curve]"
Cc1ccc(-c2nn(C)c(=O)c3ccccc23)cc1S(=O)(=O)NCCCN(C)C,inactive: 33.1%,–
COc1ccc(CCCc2n[nH]c(=S)n2C)cc1C,–,"inconclusive: 79.4 µM [inhibitor, single point]"
CCN1CCN(C(=O)c2ccc3c(c2)c(C)c(C)n3Cc2ccccc2)CC1,–,"inconclusive: 79.4 µM [inhibitor, partial curve]"
COc1ccc(/C=C2\CCC/C(=C\C=N\N(C)C)C2=O)cc1,–,"inconclusive: 31.6 µM [inhibitor, partial curve]"
Cc1ccc(-c2nc3ccccn3c2Nc2ccccc2)o1,inactive: 11.8%,–
COc1cc(NC(C)CCCNC(C)C)c2ncccc2c1OC (stereo not drawn),–,"inconclusive: 39.8 µM [inhibitor, partial curve]"
COc1ccc(NC(=O)Nc2ccon2)cc1OC,inactive: 41.8%,–
N#Cc1cn(CCOc2ccc(F)cc2)c2ccccc12,inactive: 147%,–
COC(=O)c1ccccc1CC1Cc2cc3c(cc2C1=O)CCC3 (stereo not drawn),inactive: 101%,–
COc1cccc(CNCc2ccccc2OC)c1,–,"inconclusive: 44.7 µM [inhibitor, partial curve]"
COc1ccc2[nH]c(C(=O)NCc3ccc4c(c3)OCO4)cc2c1,–,"inconclusive: 79.4 µM [inhibitor, single point]"
N=c1c2c(ncn1Cc1ccco1)Oc1c(ccc3ccccc13)C2c1ccccc1 (stereo not drawn),–,"inconclusive: 39.8 µM [inhibitor, single point]"

SMILES,"activity change, negative = inhibition",Potency
COc1ccccc1N1CCN(C2CCCN(C(=O)c3cc(C4CC4)on3)C2)CC1 (stereo not drawn),inactive: 60.7%,–
Cc1cc(/C=C2/NC(=O)NC2=O)c(C)n1-c1ccccn1,–,"inconclusive: 39.8 µM [inhibitor, single point]"
O=[N+]([O-])c1cc([N+](=O)[O-])c2nonc2c1Nc1ccc(O)cc1,–,"inconclusive: 50.1 µM [inhibitor, partial curve]"
CC(=O)c1cccc(OCC(=O)N(C)CC(=O)NCc2ccco2)c1,–,"inconclusive: 14.1 µM [inhibitor, full curve, poor fit]"
COc1ccc(CN(C)C(=O)Cn2cnc(C(=O)Nc3ccc(C)c(C)c3)n2)cc1OC,inactive: 13.5%,–
CCc1ccc(S(=O)(=O)N2CC(=O)Nc3ccccc32)cc1,inactive: 17%,–
Cc1ccc(-c2nc3ccccn3c2Nc2ccc3c(c2)OCCO3)o1,–,"inconclusive: 56.2 µM [inhibitor, single point]"
CSc1nc(=S)cc(C)[nH]1,–,"inconclusive: 22.4 µM [inhibitor, full curve]"
O=C(Nc1ccc(Br)cc1)C1CCN(c2ncccn2)CC1,inactive: 42.3%,–
Cc1ccc(Cl)c(OCC(=O)Nc2sc(C)c(C)c2C#N)c1,inactive: 4.29%,–
C=CCSC1=N/C(=C\C=C\c2ccco2)C(=O)S1,–,active: 39.8 µM
C=CCc1cc(Cl)ccc1OCCCn1ccnc1,–,"inconclusive: 22.4 µM [inhibitor, single point]"
CC1=C(c2ccc(Cl)cc2)S(=O)(=O)N=C1N1CCC(C(=O)NCCc2ccco2)CC1,–,"inconclusive: 89.1 µM [inhibitor, single point]"
NNc1nc2c(F)cccc2s1,–,"inconclusive: 89.1 µM [inhibitor, single point]"
Cc1cc(C)cc(N(CC(=O)NCc2ccco2)C(=O)CCC(=O)Nc2ccccn2)c1,–,"inconclusive: 3.55 µM [inhibitor, partial curve, poor fit]"
C/C(CCC1CC(C)OC1=O)=N/Nc1nc(-c2ccccc2)cs1 (stereo not drawn),inactive: -33.2%,–
COc1ccc(NC(C)C(=O)N/N=C/c2ccccc2OCc2ccc(Br)cc2)cc1 (stereo not drawn),–,"inconclusive: 22.4 µM [inhibitor, partial curve, poor fit]"
CN1CCN(C2=C(NS(=O)(=O)c3ccccc3)C(=O)c3ccccc3C2=O)CC1,inactive: 0.819%,–
O=C(O)[C@H](Cc1ccccc1)NC(=O)N1CCN(c2cccc(C(F)(F)F)c2)CC1,inactive: 2.25% [at 57 µM],–
CCOC(=O)C1CCN(Cc2ccc(OC)cc2OC)CC1,–,"inconclusive: 79.4 µM [inhibitor, partial curve, poor fit]"
O=c1c2ccccc2sn1-c1nccs1,–,"inconclusive: 3.16 µM [inhibitor, full curve, poor fit]"
Cc1ccc(NC(=O)c2c(C)oc3ccc(O)c(CN(C)Cc4ccccc4)c23)c(C)c1,inactive: -6.49%,–
